Results on 37 substances are retold here after US12116397B2, “IL-IR-I binding polypeptide” (Swedish Orphan Biovitrum AB (publ), priority 2017, dated 2024).

The target in the test is T1, hIL-1R-I-Fc (Homo sapiens, UniProt P14778).
T1 construct: purchased Creative BioMart IL1 RI-771H
The test is described as follows: EC50 analysis of Z variants by ELISA target titration. The following applies: periplasmic Z-ABD, hIL-1R-I-Fc 100 to 0.01 nM. It is filed as binding. As to the method: A selection of IL-1R-I binding Z variants was subjected to an analysis of response against a dilution series of hIL-1R-1-Fc using ELISA as described above. The target protein hIL-1R-1-Fc was diluted stepwise 1:10 from 100 to 0.01 nM. As a background control, the Z variants were assayed with no target protein added. Obtained data was analyzed using GraphPad Prism 5 and non-linear regression, and the EC50 values (the half maximal effective concentration) were calculated.
(§1) A selection of IL-1R-I binding Z variants was subjected to an analysis of response against a dilution series of hIL-1R-1-Fc using ELISA as described above. The target protein hIL-1R-1-Fc was diluted stepwise 1:10 from 100 to 0.01 nM. As a background control, the Z variants were assayed with no target protein added. Obtained data was analyzed using GraphPad Prism 5 and non-linear regression, and the EC50 values (the half maximal effective concentration) were calculated. A periplasmic extract with Z12967 (SEQ ID NO:9) was analyzed in parallel for signal comparison.
as §1, with “binding” for “binding Z variants”, “20” for “100”, “0.002” for “0.01”, “Periplasmic extracts” for “A periplasmic extract”, “Z12967, Z16065 and Z16218 (corresponding to SEQ ID:9, 268 and 414, respectively) were” for “Z12967 (SEQ ID NO:9) was”, “comparison. As negative control, a periplasmic extract of ABD001 was used.” for “comparison.”
Background: ELISA stands for enzyme-linked immunosorbent assay.

Where [1] appears, read: first matured library (Example 4).

T1 sequence (P14778 with tags, fused parts or gaps limits assumed): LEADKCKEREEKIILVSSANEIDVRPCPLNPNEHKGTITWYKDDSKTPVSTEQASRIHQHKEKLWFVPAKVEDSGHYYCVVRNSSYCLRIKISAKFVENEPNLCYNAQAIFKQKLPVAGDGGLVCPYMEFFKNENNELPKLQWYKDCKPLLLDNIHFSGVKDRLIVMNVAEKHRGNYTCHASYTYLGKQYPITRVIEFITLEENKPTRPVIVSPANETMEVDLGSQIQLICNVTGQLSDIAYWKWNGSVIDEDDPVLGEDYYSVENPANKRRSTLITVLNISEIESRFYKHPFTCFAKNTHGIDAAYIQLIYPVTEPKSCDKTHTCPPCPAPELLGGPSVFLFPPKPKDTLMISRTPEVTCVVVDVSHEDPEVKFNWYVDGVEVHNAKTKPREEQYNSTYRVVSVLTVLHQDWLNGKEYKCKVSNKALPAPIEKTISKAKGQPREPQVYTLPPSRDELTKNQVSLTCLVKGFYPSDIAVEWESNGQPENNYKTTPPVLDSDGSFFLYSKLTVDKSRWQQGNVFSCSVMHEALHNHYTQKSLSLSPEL

On to “Z16329: IL-1R-I binding Z variant (VDAKYAKEVEDAYFEIYKLPNLTRKQYTAFIRKLLDDPSQSSELLSEAKKLNDSQAPK; Engineered IL-1R-I binding polypeptide)”, for which, under setting [1], the EC50 (in general, the concentration at which the effect is half-maximal) worked out at 450 pM.

Regarding “Z17244: IL-1R-I binding Z variant (VDAKYAKEVEDAYFEIYRLPNLTRKQYTAFIRKLLDDPSQSSELLSEAKKLNDSQAPK; Engineered IL-1R-I binding polypeptide)”, the EC50 under setting [1] came to 420 pM.

In the case of “Z12905: IL-1R-I binding Z variant (VDAKYAKEARAAQGEIYALPNLTRRQYTAFIMKLLDDPSQSSELLSEAKKLNDSQAPK; Engineered IL-1R-I binding polypeptide)”, the EC50 (primary selection (Example 1)) is 7300 pM.

Take “Z16164: IL-1R-I binding Z variant (VDAKYAKEVEEAYMEIYNLPNLTRKQYTAFIRKLLDDPSQSSELLSEAKKLNDSQAPK; Engineered IL-1R-I binding polypeptide)”: the EC50 under setting [1] turned out to be 680 pM.

On to “Z15996: IL-1R-I binding Z variant (VDAKYAKEVESAQMEIFNLPNLTRKQYTAFIRKLFDDPSQSSELLSEAKKLNDSQAPK; Engineered IL-1R-I binding polypeptide)”, for which, under setting [1], the EC50 stood at 250 pM.

In the case of “Z16243: IL-1R-I binding Z variant (VDAKYAKEVEEAYMEIYQLPNLTRKQYTAFIRKLLDDPSQSSELLSEAKKLNDSQAPK; Engineered IL-1R-I binding polypeptide)”, the EC50 under setting [1] stood at 220 pM.

Consider “Z16302: IL-1R-I binding Z variant (VDAKYAKEVETAYFEIYNLPNLTRKQYTAFIRKLLDDPSQSSELLSEAKKLNDSQAPK; Engineered IL-1R-I binding polypeptide)”, for which the EC50 under setting [1] amounted to 280 pM.

Under setting [1], “Z16161: IL-1R-I binding Z variant (VDAKYAKEVEYAQMEIYSLPNLTRRQYTAFIRKLLDDPSQSSELLSEAKKLNDSQAPK; Engineered IL-1R-I binding polypeptide)” gave an EC50 of 250 pM.

Under setting [1], “Z16749: IL-1R-I binding Z variant (VDAKYAKEVEAAYYEIYGLPNLTRKQYTAFIRKLLDDPSQSSELLSEAKKLNDSQAPK; Engineered IL-1R-I binding polypeptide)” showed an EC50 of 270 pM.

“Z17257: IL-1R-I binding Z variant (VDAKYAKEVEEAYMEIYGLPNLTRKQYTAFIRKLLDDPSQSSELLSEAKKLNDSQAPK; Engineered IL-1R-I binding polypeptide)” yielded an EC50 under setting [1] of 480 pM.

Substance “Z15997: IL-1R-I binding Z variant (VDAKYAKEIEEAQMEIFQLPNLTRKQYTAFIRKLLDDPSQSSELLSEAKKLNDSQAPK; Engineered IL-1R-I binding polypeptide)” had an EC50 under setting [1] of 250 pM. Compared with the last substance, the EC50 is about 1.9-fold lower.

Regarding “Z16135: IL-1R-I binding Z variant (VDAKYAKEVELAQHEIFQLPNLTRKQYTAFIRKLFDDPSQSSELLSEAKKLNDSQAPK; Engineered IL-1R-I binding polypeptide)”, the EC50 under setting [1] is 250 pM.

“Z16688: IL-1R-I binding Z variant (VDAKYAKEVKDAQFEIFALPNLTRKQYTAFIRKLFDDPSQSSELLSEAKKLNDSQAPK; Engineered IL-1R-I binding polypeptide)”: the midpoint of the response under setting [1], the EC50, lay at 270 pM.

“Z16312: IL-1R-I binding Z variant (VDAKYAKEVEKAQMEIFDLPNLTRKQYTAFIRKLLDDPSQSSELLSEAKKLNDSQAPK; Engineered IL-1R-I binding polypeptide)” gave an EC50 under setting [1] of 240 pM.

Turning to “Z16046: IL-1R-I binding Z variant (VDAKYAKEIYSAQMEIFKLPNLTRKQYTAFIRKLFDDPSQSSELLSEAKKLNDSQAPK; Engineered IL-1R-I binding polypeptide)”, the EC50 under setting [1] is 270 pM.

Substance “Z16319: IL-1R-I binding Z variant (VDAKYAKEIEEAQMEIFSLPNLTRKQYTAFIRKLFDDPSQSSELLSEAKKLNDSQAPK; Engineered IL-1R-I binding polypeptide)” had an EC50 under setting [1] of 300 pM.

The substance “Z16106: IL-1R-I binding Z variant (VDAKYAKEVEDAQMEIFKLPNLTRKQYTAFIRKLFDDPSQSSELLSEAKKLNDSQAPK; Engineered IL-1R-I binding polypeptide)” yielded an EC50 under setting [1] of 230 pM.

Under setting [1], “Z16178: IL-1R-I binding Z variant (VDAKYAKEVEEAQMEIFFLPNLTRKQYTAFIIKLFDDPSQSSELLSEAKKLNDSQAPK; Engineered IL-1R-I binding polypeptide)” had an EC50 of 240 pM.

In the case of “Z16678: IL-1R-I binding Z variant (VDAKYAKEVEVAYFEIYALPNLTRKQYTAFIRKLLDDPSQSSELLSEAKKLNDSQAPK; Engineered IL-1R-I binding polypeptide)”, under setting [1], the EC50 amounted to 240 pM.

With “Z16155: IL-1R-I binding Z variant (VDAKYAKETWYAQMEIFSLPNLTRKQYTAFIRKLLDDPSQSSELLSEAKKLNDSQAPK; Engineered IL-1R-I binding polypeptide)”, under setting [1], a half-maximal effect (EC50) was put at 290 pM.

Under setting [1], “Z15824: IL-1R-I binding Z variant (VDAKYAKEIEEAQMEIFALPNLTRKQYTAFIRKLFDDPSQSSELLSEAKKLNDSQAPK; Engineered IL-1R-I binding polypeptide)” registered an EC50 of 230 pM.

For “Z16070: IL-1R-I binding Z variant (VDAKYAKEIEEAQMEIYRLPNLTRKQYTAFIRKLFDDPSQSSELLSEAKKLNDSQAPK; Engineered IL-1R-I binding polypeptide)”, under setting [1], the EC50 came out at 230 pM.

“Z12910: IL-1R-I binding Z variant (VDAKYAKEALSAQQEIFALPNLTRSQYTAFIRKLLDDPSQSSELLSEAKKLNDSQAPK; Engineered IL-1R-I binding polypeptide)” came in with an EC50 (primary selection (Example 1)) of 230 pM.

Under setting [1], “Z16008: IL-1R-I binding Z variant (VDAKYAKEVEVAQMEIFNLPNLTRRQYTAFIRKLLDDPSQSSELLSEAKKLNDSQAPK; Engineered IL-1R-I binding polypeptide)” showed an EC50 of 230 pM. That is a sub-nanomolar value.

In turn, “Z16034: IL-1R-I binding Z variant (VDAKYAKEVEEAQMEIFELPNLTRKQYTAFIRKLFDDPSQSSELLSEAKKLNDSQAPK; Engineered IL-1R-I binding polypeptide)” returned an EC50 under setting [1] of 230 pM. In other words, the sub-nanomolar range.

Consider “Z15949: IL-1R-I binding Z variant (VDAKYAKETETAQMEIFALPNLTRKQYTAFIRKLLDDPSQSSELLSEAKKLNDSQAPK; Engineered IL-1R-I binding polypeptide)”, for which, under setting [1], the EC50 worked out at 250 pM.

In the case of “Z16054: IL-1R-I binding Z variant (VDAKYAKEAEVAYFEIYALPNLTRKQYTAFIRKLLDDPSQSSELLSEAKKLNDSQAPK; Engineered IL-1R-I binding polypeptide)”, it took 240 pM to reach a half-maximal effect under setting [1] (EC50).

Turning to “Z15813: IL-1R-I binding Z variant (VDAKYAKEVDEAYMEIYRLPNLTRKQYTAFIRKLLDDPSQSSELLSEAKKLNDSQAPK; Engineered IL-1R-I binding polypeptide)”, the concentration giving a half-maximal response (EC50) under setting [1] worked out at 350 pM. The EC50 values of the last two substances are within 1.5-fold of each other.

On to “Z16011: IL-1R-I binding Z variant (VDAKYAKEIEVAQMEIFALPNLTRKQYTAFIRKLFDDPSQSSELLSEAKKLNDSQAPK; Engineered IL-1R-I binding polypeptide)”, for which, under setting [1], the EC50 turned out to be 220 pM.

“Z16263: IL-1R-I binding Z variant (VDAKYAKEAEKAYWEIYALPNLTRKQYTAFIRKLLDDPSQSSELLSEAKKLNDSQAPK; Engineered IL-1R-I binding polypeptide)”: the response under setting [1] was half-maximal at 260 pM (EC50).

With “Z16168: IL-1R-I binding Z variant (VDAKYAKEAVSAYWEIFALPNLTRRQYTAFIRKLLDDPSQSSELLSEAKKLNDSQAPK; Engineered IL-1R-I binding polypeptide)”, under setting [1], the EC50 was 280 pM.

As to “Z17297: IL-1R-I binding Z variant (VDAKYAKEAYIAQMEIFGLPNLTRKQYTAFIRKLLDDPSQSSELLSEAKKLNDSQAPK; Engineered IL-1R-I binding polypeptide)”, the response under setting [1] was half-maximal at 240 pM (EC50). This EC50 and that of the substance before are within 1.5-fold of each other.

Take “Z16042: IL-1R-I binding Z variant (VDAKYAKEVEDAQMEIFGLPNLTRKQYTAFIRKLLDDPSQSSELLSEAKKLNDSQAPK; Engineered IL-1R-I binding polypeptide)”: the EC50 under setting [1] amounted to 240 pM. That is a sub-nanomolar value.

In the case of “Z16305: IL-1R-I binding Z variant (VDAKYAKEVESAYFEIYSLPNLTRKQYTAFIRKLLDDPSQSSELLSEAKKLNDSQAPK; Engineered IL-1R-I binding polypeptide)”, it took 220 pM to reach a half-maximal effect under setting [1] (EC50).

Take “Z16277: IL-1R-I binding Z variant (VDAKYAKEVEDAYYEIYELPNLTRKQYTAFIRKLLDDPSQSSELLSEAKKLNDSQAPK; Engineered IL-1R-I binding polypeptide)”: under setting [1], the EC50 turned out to be 260 pM.

For “Z16004: IL-1R-I binding Z variant (VDAKYAKEVEVAQMEIFSLPNLTRKQYTAFIRKLLDDPSQSSELLSEAKKLNDSQAPK; Engineered IL-1R-I binding polypeptide)”, the response under setting [1] was half-maximal at 250 pM (EC50).

In the case of “Z16048: IL-1R-I binding Z variant (VDAKYAKEIEEAQMEIYYLPNLTRKQYTAFIRKLFDDPSQSSELLSEAKKLNDSQAPK; Engineered IL-1R-I binding polypeptide)”, the response under setting [1] was half-maximal at 250 pM (EC50).
